In a collection of fitness landscapes (doi:10.1038/s41467-024-54723-y):
Whole data set: some 18,000 sequences, median “TetR repression strength (sort-seq, GFP reporter)” near 0.23, cut for the highest 2% near 0.68. The list shows a part of the results.

What follows are sequences tested against TetR (class B, Tn10) (UniProt P04483) (assay: TetR repression strength (sort-seq, GFP reporter) (relative to tetO2 = 1); higher = stronger repression). Details: E. coli.
UniProt P04483, sequence (P04483 whole entry): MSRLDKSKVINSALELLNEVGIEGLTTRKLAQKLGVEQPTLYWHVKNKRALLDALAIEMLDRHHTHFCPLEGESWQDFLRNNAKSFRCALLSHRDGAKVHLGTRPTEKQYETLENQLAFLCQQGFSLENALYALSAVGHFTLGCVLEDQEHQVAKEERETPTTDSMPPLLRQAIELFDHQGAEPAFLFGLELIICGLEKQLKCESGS
Method in brief: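 Repression strength is the top bin index plus one minus the read-weighted mean bin, relative to the unaltered operator's value. A low-copy library in E. coli SIG10-MAX randomized eight operator positions between a constitutive promoter and sfGFP, with TetR expressed constitutively; cells grew 5 h at 37 °C in LB with 50 µg/mL chloramphenicol and 10^6 were FACS-sorted into 13 bins that were each Illumina-sequenced. Three independent transformations were averaged, keeping only members with ≥30 reads in all replicates and CV ≤0.5.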
TCCCGTGAAGTCACGGAGA gave a TetR repression strength of 0.235.
Work on TCCCGGAAAGTTTCGGAGA yielded a TetR repression strength of 0.0395.
TCCCTAGGAGTGTGGGAGA was tested, and the TetR repression strength was 0.119.
Work on TCCCTATCAGTATCGGAGA yielded a TetR repression strength of 0.315.
In the case of TCCCCTATAGTTGGGGAGA, the TetR repression strength is reported as 0.174.
TCCCATCGAGTGGCCGAGA showed a TetR repression strength of 0.201.
Sequence TCCCTTAGAGTGTCAGAGA has a TetR repression strength of 0.149.
TCCCCGAAAGTACACGAGA was tested, and the TetR repression strength was 0.32.
In the case of TCCCAAAGAGTTGCTGAGA, the TetR repression strength is reported as 0.16.
Sequence TCCCGTTCAGTGTTTGAGA has a TetR repression strength of 0.321.
TCCCGTGGAGTCGTGGAGA was tested, and the TetR repression strength was 0.209.
Work on TCCCGGTCAGTCTGCGAGA yielded a TetR repression strength of 0.194.
With TCCCGGGGAGTGTATGAGA the TetR repression strength was 0.575.
For TCCCGGACAGTGTCTGAGA, the TetR repression strength was 0.262.
TCCCCGTTAGTGCCGGAGA was tested, and the TetR repression strength was 0.08.
With TCCCGTTGAGTCTGTGAGA the TetR repression strength was 0.176.
In the case of TCCCGGGGAGTCTAGGAGA, the TetR repression strength is reported as 0.156.
With TCCCTTCTAGTTGTTGAGA the TetR repression strength was 0.216.
For TCCCAGGTAGTGTGAGAGA, the TetR repression strength was 0.0877.
Sequence TCCCACGGAGTTCCAGAGA has a TetR repression strength of 0.164.
With TCCCTTGGAGTTAAGGAGA the TetR repression strength was 0.123.
For TCCCACTCAGTCGGCGAGA, the TetR repression strength was 0.359.
With TCCCGTGAAGTATTCGAGA the TetR repression strength was 0.315.
TCCCCGCAAGTAAGAGAGA gave a TetR repression strength of 0.391.
With TCCCCATCAGTATTAGAGA the TetR repression strength was 0.344.
With TCCCGCTCAGTTCCGGAGA the TetR repression strength was 0.207.
With TCCCTGTCAGTTTCTGAGA the TetR repression strength was 0.518.
TCCCGCGGAGTACTGGAGA gave a TetR repression strength of 0.26.
For TCCCATACAGTATTTGAGA, the TetR repression strength was 0.302.
TCCCGGGTAGTGTTCGAGA was tested, and the TetR repression strength was 0.16.
In the case of TCCCTTCGAGTTAAGGAGA, the TetR repression strength is reported as 0.186.
For TCCCGCGCAGTTGGGGAGA, the TetR repression strength was 0.518.
Sequence TCCCCACGAGTACTAGAGA has a TetR repression strength of 0.326.
For TCCCATTTAGTCAGTGAGA, the TetR repression strength was 0.108.
For TCCCTTTCAGTCTGTGAGA, the TetR repression strength was 0.336.
Work on TCCCCAAGAGTTAAGGAGA yielded a TetR repression strength of 0.2.
In the case of TCCCGTTCAGTACGCGAGA, the TetR repression strength is reported as 0.912.
Work on TCCCGGGAAGTGCGGGAGA yielded a TetR repression strength of 0.32.
For TCCCACTAAGTTATAGAGA, the TetR repression strength was 0.672.
TCCCGGTCAGTAGCGGAGA gave a TetR repression strength of 0.0495.
For TCCCGGGGAGTTAACGAGA, the TetR repression strength was 0.428.
Work on TCCCGTTTAGTCGATGAGA yielded a TetR repression strength of 0.124.
With TCCCCCTAAGTTTACGAGA the TetR repression strength was 0.42.
TCCCTCCAAGTATCTGAGA gave a TetR repression strength of 0.365.
With TCCCTTGAAGTATACGAGA the TetR repression strength was 0.478.
Work on TCCCTGTCAGTTCTTGAGA yielded a TetR repression strength of 0.238.
For TCCCGTGGAGTCCGTGAGA, the TetR repression strength was 0.45.
With TCCCCCGGAGTCTGCGAGA the TetR repression strength was 0.198.
TCCCCCCTAGTACGTGAGA was tested, and the TetR repression strength was 0.814.
In the case of TCCCGGAGAGTTGTCGAGA, the TetR repression strength is reported as 0.168.
For TCCCACCAAGTGTTAGAGA, the TetR repression strength was 0.17.
TCCCGATGAGTCAGCGAGA showed a TetR repression strength of 0.0296.
Sequence TCCCTAAGAGTATTAGAGA has a TetR repression strength of 0.0953.
TCCCATCGAGTTGTGGAGA gave a TetR repression strength of 0.415.
Sequence TCCCGCGCAGTTGTTGAGA has a TetR repression strength of 0.196.
Work on TCCCCTCTAGTTTGGGAGA yielded a TetR repression strength of 0.415.
Sequence TCCCGTATAGTTACTGAGA has a TetR repression strength of 0.
TCCCAGCAAGTGATAGAGA gave a TetR repression strength of 0.167.
For TCCCATTGAGTCGGAGAGA, the TetR repression strength was 0.13.
TCCCAAATAGTAATCGAGA showed a TetR repression strength of 0.221.
TCCCCCATAGTGGACGAGA gave a TetR repression strength of 0.177.
TCCCTTGCAGTTCGAGAGA was tested, and the TetR repression strength was 0.218.
Sequence TCCCAAGGAGTGCCTGAGA has a TetR repression strength of 0.474.
Work on TCCCGGTAAGTTTTGGAGA yielded a TetR repression strength of 0.498.
For TCCCTTAAAGTAACAGAGA, the TetR repression strength was 0.143.
Work on TCCCATCTAGTAGTCGAGA yielded a TetR repression strength of 0.319.
Work on TCCCTTGTAGTGCACGAGA yielded a TetR repression strength of 0.0765.
Work on TCCCGCCTAGTCCCAGAGA yielded a TetR repression strength of 0.489.
Sequence TCCCGCTGAGTTGTAGAGA has a TetR repression strength of 0.253.
TCCCAGTGAGTACGAGAGA showed a TetR repression strength of 0.471.
Sequence TCCCAATTAGTGCGTGAGA has a TetR repression strength of 0.221.
In the case of TCCCGAACAGTGTGGGAGA, the TetR repression strength is reported as 0.178.
TCCCGAGCAGTGTGTGAGA was tested, and the TetR repression strength was 0.222.
In the case of TCCCGGGCAGTTGAGGAGA, the TetR repression strength is reported as 0.289.
TCCCTCGAAGTTTATGAGA showed a TetR repression strength of 0.191.
In the case of TCCCAAAAAGTAGGTGAGA, the TetR repression strength is reported as 0.207.
Work on TCCCCCATAGTCCTCGAGA yielded a TetR repression strength of 0.412.
TCCCCTTGAGTGTGTGAGA was tested, and the TetR repression strength was 0.178.
For TCCCTTACAGTCCACGAGA, the TetR repression strength was 0.808.
With TCCCAGTTAGTACGTGAGA the TetR repression strength was 0.264.
Work on TCCCGTTTAGTGCCAGAGA yielded a TetR repression strength of 0.0562.
Work on TCCCTATAAGTCAGAGAGA yielded a TetR repression strength of 0.335.
Work on TCCCTCAAAGTGACTGAGA yielded a TetR repression strength of 0.185.
TCCCATTGAGTTACAGAGA showed a TetR repression strength of 0.118.
TCCCGGTGAGTCTAGGAGA showed a TetR repression strength of 0.164.
TCCCGAAGAGTTCCTGAGA was tested, and the TetR repression strength was 0.501.
Sequence TCCCTGTTAGTTGTCGAGA has a TetR repression strength of 0.341.
Work on TCCCGAGAAGTGGGCGAGA yielded a TetR repression strength of 0.263.
For TCCCTCGTAGTGTTTGAGA, the TetR repression strength was 0.362.
Work on TCCCGGGAAGTGTGGGAGA yielded a TetR repression strength of 0.184.
Sequence TCCCCGCCAGTTATGGAGA has a TetR repression strength of 0.191.
TCCCGTTCAGTGATAGAGA gave a TetR repression strength of 0.819.
TCCCTGCTAGTGTGGGAGA gave a TetR repression strength of 0.23.
TCCCCATCAGTGATGGAGA gave a TetR repression strength of 0.399.
TCCCATGAAGTTGCGGAGA was tested, and the TetR repression strength was 0.104.
TCCCTGGGAGTCTGTGAGA was tested, and the TetR repression strength was 0.158.
TCCCGGCCAGTTCGTGAGA was tested, and the TetR repression strength was 0.197.
TCCCTTGGAGTCATGGAGA gave a TetR repression strength of 0.307.
Sequence TCCCTATCAGTGGGGGAGA has a TetR repression strength of 0.378.
For TCCCCGTGAGTCACGGAGA, the TetR repression strength was 0.232.
TCCCACCCAGTGGTCGAGA gave a TetR repression strength of 0.255.
With TCCCCTCCAGTGAGGGAGA the TetR repression strength was 0.351.
TCCCTGAAAGTGGGCGAGA showed a TetR repression strength of 0.202.
In the case of TCCCATCCAGTTATTGAGA, the TetR repression strength is reported as 0.23.
TCCCCGGAAGTGAGAGAGA gave a TetR repression strength of 0.255.
TCCCGTTTAGTTATTGAGA gave a TetR repression strength of 0.661.
TCCCTTGCAGTCAGAGAGA showed a TetR repression strength of 0.184.
With TCCCAAGTAGTGACGGAGA the TetR repression strength was 0.0549.
TCCCTGGGAGTGCGGGAGA was tested, and the TetR repression strength was 0.144.
TCCCTGGGAGTATACGAGA was tested, and the TetR repression strength was 0.134.
With TCCCCGTTAGTCAGAGAGA the TetR repression strength was 0.49.
Work on TCCCCGCGAGTCATTGAGA yielded a TetR repression strength of 0.44.
For TCCCGACTAGTGACTGAGA, the TetR repression strength was 0.579.
For TCCCGTGAAGTCGTGGAGA, the TetR repression strength was 0.259.
TCCCCGCTAGTTCATGAGA was tested, and the TetR repression strength was 0.255.
With TCCCGCGAAGTCAGGGAGA the TetR repression strength was 0.13.
TCCCGATAAGTGTCCGAGA was tested, and the TetR repression strength was 0.142.
Sequence TCCCTTATAGTCGGTGAGA has a TetR repression strength of 0.104.
Sequence TCCCTCATAGTCTGTGAGA has a TetR repression strength of 0.387.
In the case of TCCCCGCGAGTGGCCGAGA, the TetR repression strength is reported as 0.543.
TCCCCATTAGTGAAAGAGA was tested, and the TetR repression strength was 0.415.
TCCCCTACAGTTAGGGAGA was tested, and the TetR repression strength was 0.214.
TCCCCTCCAGTTACAGAGA was tested, and the TetR repression strength was 0.421.
For TCCCTGGAAGTAGACGAGA, the TetR repression strength was 0.0579.
TCCCCATGAGTCTGGGAGA was tested, and the TetR repression strength was 0.22.
TCCCTCAAAGTTAGGGAGA gave a TetR repression strength of 0.162.
Sequence TCCCTCTCAGTGGTAGAGA has a TetR repression strength of 0.424.
In the case of TCCCCTTGAGTTGAGGAGA, the TetR repression strength is reported as 0.707.
Work on TCCCCTCTAGTGTATGAGA yielded a TetR repression strength of 0.327.
TCCCGTCCAGTCGGCGAGA showed a TetR repression strength of 0.216.
